# Test results published in PubChem BioAssay AID1645887 (National Center for Advancing Translational Sciences (NCATS), 2021).
# “And” between values parts separate entries of the source, which are not always exact repeats. Equal entries are not always repeated. Among all 16,000 compounds or so, about 40 (0.2%) were called active. Inconclusive results (about 1%) are left out. The call rests on the fitted dose curve; in most records, active means well fitted activation curve with a large enough effect; inconclusive means small, poorly fitted or top-dose-only effect, or another doubt; inactive means no such curve, though single readings can be large or run the other way. Some of the results follow.
# Biological target: Rap guanine nucleotide exchange factor 4 (Homo sapiens) (UniProt Q8WZA2)
# UniProt Q8WZA2, sequence (Q8WZA2 whole entry, looked up): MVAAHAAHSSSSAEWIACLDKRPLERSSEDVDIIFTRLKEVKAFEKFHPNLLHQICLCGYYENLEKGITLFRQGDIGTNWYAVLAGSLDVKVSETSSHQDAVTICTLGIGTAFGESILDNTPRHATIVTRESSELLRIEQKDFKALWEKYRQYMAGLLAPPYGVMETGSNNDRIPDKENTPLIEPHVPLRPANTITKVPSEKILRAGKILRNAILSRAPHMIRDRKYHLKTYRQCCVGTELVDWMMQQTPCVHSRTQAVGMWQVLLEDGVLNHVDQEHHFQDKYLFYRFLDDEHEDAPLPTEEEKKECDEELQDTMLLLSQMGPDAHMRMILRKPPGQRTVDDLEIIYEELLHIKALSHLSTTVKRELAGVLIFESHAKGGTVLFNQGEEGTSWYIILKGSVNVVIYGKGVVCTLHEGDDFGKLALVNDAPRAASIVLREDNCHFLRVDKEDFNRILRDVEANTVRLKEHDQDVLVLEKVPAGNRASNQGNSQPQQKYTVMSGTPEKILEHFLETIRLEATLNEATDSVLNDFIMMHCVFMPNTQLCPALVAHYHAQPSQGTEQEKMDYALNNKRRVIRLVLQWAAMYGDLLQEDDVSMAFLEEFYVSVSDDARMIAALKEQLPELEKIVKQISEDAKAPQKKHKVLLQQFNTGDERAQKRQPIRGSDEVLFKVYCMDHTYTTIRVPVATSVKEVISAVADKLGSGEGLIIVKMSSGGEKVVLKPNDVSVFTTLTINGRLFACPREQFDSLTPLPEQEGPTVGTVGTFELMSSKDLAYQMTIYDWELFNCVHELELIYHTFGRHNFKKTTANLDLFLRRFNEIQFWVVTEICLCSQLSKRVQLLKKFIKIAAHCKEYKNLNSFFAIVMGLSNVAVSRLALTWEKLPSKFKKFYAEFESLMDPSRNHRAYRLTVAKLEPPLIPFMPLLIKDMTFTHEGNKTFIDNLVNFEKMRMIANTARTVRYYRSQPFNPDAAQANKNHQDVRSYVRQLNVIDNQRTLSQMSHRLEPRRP
# Experiment: Validation qHTS for agonist of cAMP-regulated guanine nucleotide exchange factor 4 (EPAC2);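 further: exchange makes BODIPY-GDP fluorescence drop when released from Rap1B; series mostly up to about 150 µM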
# Details: EPAC2 Rap1B BODIPY-GDP exchange, fluorescence; activation: hits give high values
# Summary of the method: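 Fluorescent exchange assay: 100 nM EPAC2 with 250 nM RAP1B-BODIPY-GDP and 50 uM GDP; compound added, 5 min at room temperature, then read (ex 480/em 540 nm) every 5 min for 30 min. Normalized to 6.5 mM cAMP agonist control.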
# On the % scale 0 is the no-effect control and ±100 the full control effect.
row,SMILES,activation
1,C[C@@H]1CC[C@H]2[C@@H](C)C(=O)O[C@@H]3O[C@@]4(C)CC[C@@H]1[C@]32OO4,inactive: -30.1%
2,CC(=O)OCC1=C(C(=O)O)N2C(=O)C(NC(=O)CCCC(N)C(=O)O)C2SC1 (stereo not drawn),inactive: 5.6%
3,CC(=O)C1=C(O)[C@@H]2[C@@H]3c4c[nH]c5cccc(c45)C[C@@H]3C(C)(C)N2C1=O,inactive: -11.2%
4,CS(=N)(=O)CC[C@H](N)C(=O)O (stereo partly drawn),inactive: -37.1%
5,O=c1cccc2n1CC1CC2CN2CCCCC12 (stereo not drawn),inactive: -3.23%
6,CCCN(CCC)CCc1ccc(O)c(O)c1,inactive: 2.62% and inactive: -53.7%
7,Cc1nc2cnc(N3CCNCC3)nc2n(C)c1=O,inactive: -28.8%
8,c1cnc(N2CC3(CCNCC3)C2)nc1,inactive: 2.58%
9,CC1(C)N([O-])[N+](=O)C1(C)Br (stereo not drawn),inactive: -16.7%
10,COc1ccc2c(c1)/C(=C/c1cnc[nH]1)C(=O)N2,inactive: -32.4%
11,C[C@@]12C=CC(=O)C=C1CCC1C2CC[C@]2(C)C(=O)CCC12 (stereo partly drawn),inactive: -7.37%
12,CCCCCc1cc(O)c2c(c1)OC(C)(C)c1ccc(C)cc1-2,inactive: 14%
13,COc1ccc2c(c1)[nH]c1c(C)nccc12,inactive: 0.0563% [middle of 4 runs]
14,CCc1cccc(C)c1N(C(=O)CCl)C(C)COC (stereo not drawn),inactive: -6.76%
15,Ic1ccccc1CNC1C2CCN(CC2)C1C(c1ccccc1)c1ccccc1 (stereo not drawn),inactive: -11.7%
16,Oc1c(Cl)c(Cl)c(Cl)c(Cl)c1Cl,inactive: -14.2%
17,O=C1c2ccccc2C(=O)c2ccccc21,inactive: -29.9% and inactive: 4.19%
18,CCN(C(C)=O)c1cccc(-c2ccnc3c(C#N)cnn23)c1,inactive: 2.36%
19,CNC(C)[C@H](O)c1ccccc1 (stereo partly drawn),inactive: -15.3%
20,CC(=O)OC[C@]12C[C@H](OC(=O)CC(C)C)C(C)=C[C@H]1O[C@H]1[C@H](O)[C@@H](OC(C)=O)[C@@]2(C)[C@]12CO2,inactive: 6.55%
21,O=[N+]([O-])c1ccc([As](=O)(O)O)cc1,inactive: 3.57%
22,C1CC[C@H]([C@@]23C[C@H](C[C@H]4CCCN[C@H]42)[C@@H]2CCCCN2C3)NC1,inactive: -11.4%
23,CCOCCOC(C)=O,inactive: 9.82%
24,CC[N+](CC)(CC)CC,inactive: -14.7% and inactive: -33.8%
25,CCC(COC(=O)c1cc(OC)c(OC)c(OC)c1)(c1ccccc1)N(C)C (stereo not drawn),inactive: -3.04%
26,C[C@@H](CO)NC(=O)[C@@H]1C=C2c3cccc4[nH]cc(c34)C[C@H]2N(C)C1,inactive: 12.8%
27,Clc1ccc(C(OCCN2CCCCC2)c2ccccc2)cc1 (stereo not drawn),inactive: -20.8% and inactive: -5.53%

row,SMILES,activation
1,COC(=O)N1CCN(C(=O)Cc2ccc(Cl)c(Cl)c2)[C@H](CN2CCCC2)C1,inactive: 7.41%
2,CCCSP(=O)(OCC)SCCC,inactive: 7.21%
3,CN1CCN(C(=O)OC2c3nccnc3C(=O)N2c2ccc(Cl)cn2)CC1 (stereo not drawn),inactive: -16.6% and inactive: 14.3%
4,NCCc1c[nH]c2ccccc12,inactive: -13.5% and inactive: -7.12% and inactive: -9.68%
5,COc1ccc2c(CCN)c[nH]c2c1,inactive: -0.0623%
6,CN1C2CCC1CC(OC(c1ccccc1)c1ccccc1N)C2 (stereo not drawn),inactive: -9.4% and inactive: -12% and inactive: -21.8%
7,CCC[C@@H]1CC2=CC(=O)CC[C@]2(C)[C@@H]2CC[C@@]3(C)[C@H](CC[C@]3(O)CCC(=O)O)[C@H]12,inactive: -9.02%
8,CCO/N=C(\CC)C1=C(O)CC(c2c(C)cc(C)cc2C)CC1=O (stereo not drawn),inactive: -17.8%
9,C=C1[C@@H](C)[C@H]2[C@H](Cc3ccccc3)NC(=O)[C@]23OC(=O)/C=C/[C@H](O)CCC[C@@H](C)C/C=C/[C@H]3[C@@H]1O,inactive: -7.65%
10,Nc1ccccc1,inactive: 14.7%
11,CCOC(=O)[C@]12Cc3cc(OC)ccc3[C@H]1N(Cc1ccccc1)C(=O)c1ccccc12,inactive: -21.8%
12,CCOC(OCC)P(=O)(O)CCCN,inactive: -13.4% and inactive: -8.82%
13,ClC1=C(Cl)C2(Cl)C3C4C=CC(C4)C3C1(Cl)C2(Cl)Cl (stereo not drawn),inactive: -38.8%
14,c1cncc([C@H]2CCCCN2)c1,inactive: 3.75%
15,CC[N+]1(CCOC(=O)C(O)(c2ccccc2)c2ccccc2)CCCCC1,inactive: -12.7%
16,C/C=C(/C)C(=O)OC1CC[C@]2(C)C3CCC4[C@]5(O)CC(O)[C@]6(O)C(CN7CC(C)CCC7[C@]6(C)O)[C@]5(O)C[C@@]42O[C@]13O (stereo partly drawn),inactive: -12%
17,Cc1c(Cl)c(=O)oc2cc(OP(=O)(OCCCl)OCCCl)ccc12,inactive: 1.63%
18,COc1ccc(C(=O)O[C@H]2CC[C@@]3(C)C4CCC5[C@]6(O)C[C@H](O)[C@@]7(O)C(CN8C[C@@H](C)CC[C@H]8[C@@]7(C)O)[C@]6(O)C[C@@]53O[C@@]42O)cc1OC (stereo partly drawn),inactive: -1.27% and inactive: 4.24%
19,COC(=O)COc1cc(Cl)c(Cl)cc1Cl,inactive: -5.32%
20,CN(C)C1C(=O)C(C(N)=O)=C(O)[C@@]2(O)C(=O)C3=C(O)c4c(O)cccc4[C@](C)(O)C3C(O)C12 (stereo partly drawn),inactive: -8.93%
21,C[N+]1(C)[C@@H]2CC[C@H]1CC(OC(=O)C(CO)c1ccccc1)C2 (stereo partly drawn),inactive: 4.62% and inactive: -1.37%
22,CC(=O)OCC1=C(C(=O)O)N2C(=O)[C@@H](NC(=O)CCC[C@@H](N)C(=O)O)[C@H]2SC1,inactive: -31%
23,CC1(C)S[C@@H]2[C@H](N)C(=O)N2[C@H]1C(=O)O,inactive: -17.6%
24,COc1c2c(cc3c1OCO3)CC[N+](C)=C2,inactive: -0.261% and inactive: 5.7%
25,CN1C(=O)COc2c(C(=O)NC3CN4CCC3CC4)cc(Cl)cc21 (stereo not drawn),inactive: -3.72%
26,CCN(CC)CCO[C@H]1CC[C@@]2(C)C(=CC[C@@H]3[C@@H]2CC[C@]2(C)C(=O)CC[C@@H]32)C1,inactive: -8.37%
